Source: the supplement of paper PMC10126150
Sequences with one replicate were seen in a single cluster, so their values are uncertain.

Test system: ATP
Assay: switch fluorescence ratio, 500 uM ATP over buffer (Cy3 cluster intensity, sum of 5 cycles each) (fold (ratio)); higher = stronger signal-on switching upon ATP binding; sequences stand for … in TCGTCGGCAGCGTCAGATGTGTATAAGAGACAGTTTTTTTTTTTTTTTTTTTTTTTTT…TC
Details: aptamer strand: ATP DNA aptamer (quencher-CACCTGGGGGAGTATTGCGGAGGAAGG + anchor), 100 nM annealed; ATP concentration: 500 uM; one replicate
Outline: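 Switching-strand clusters labelled with Cy3 on a modified Illumina MiSeq flow-cell were annealed to 100 nM quencher-labelled ATP aptamer, imaged in selection buffer, and re-imaged after 15 min with 500 uM ATP at 22 °C. This was done over five cycles with NaOH stripping and re-annealing in between. The fluorescence ratio is summed target-cycle over summed buffer-cycle Cy3 intensity per cluster, averaged per switch-domain sequence, excluding clusters outside 100-1000 RFU.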
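Also: ATP exposure 15 min at 22 °C before imaging.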

Row | Sequence | switch fluorescence ratio
1 | AAAAACACGG | 0.972
2 | AATATAGGTC | 1.03
3 | GTAAGAAAGC | 0.992
4 | ACAAAAAGTT | 0.967
5 | TTAGGGTAT | 1.04
6 | GCCTGGGTGC | 1.49
7 | TAAAGCAGCC | 1.04
8 | GTATGTTTGG | 0.974
9 | TGGCAAGGAG | 0.97
10 | TGCGACCATA | 1.11
11 | AAGGGTAGGG | 1
12 | GATGCTGGTT | 1.02
13 | AGGCGCGCGT | 1.01
14 | ATGATAGTTT | 1.03
15 | GTTTACTTCA | 1.03
16 | TTCGCTTTTG | 0.958
17 | TGTTGGCCAA | 0.997
18 | CCAGGGAGCG | 1.02
19 | CCTTTAGCGT | 1.25
20 | CAGAGACTAA | 1.05
21 | TTAAGGTGGG | 0.996
22 | TTGAAAAGAG | 1.01
23 | GACTCTACTA | 1.33

Row | Sequence | switch fluorescence ratio
24 | AGTTGAGGAT | 0.993
25 | GCATGATCGC | 1.04
26 | CTAAGCATGC | 1.19
27 | CATTTTTAAT | 1.01
28 | GACACGGTGC | 1.15
29 | CACTCAGACG | 1.01
30 | TGCTCTCACT | 1.03
31 | TTAGTTAACA | 0.993
32 | ACTGAGCTCA | 1.07
33 | CATCGAGTAG | 0.995
34 | ACCGGATTTA | 0.991
35 | AGGAATCTGT | 0.965
36 | CGAGGGCGCT | 0.938
37 | GGAAAAATTC | 1.03
38 | TAGTTCCCAG | 1
39 | AGTCATGAAT | 0.994
40 | TAGGAGGCTT | 0.992
41 | AACGGTCCGC | 1.18
42 | ATCCTGGGTT | 1.05
43 | TTTACGGTTT | 1
44 | TATGGCCGGC | 0.928
45 | GGGTATCTTT | 1.01
46 | AATGGGACT | 0.985

Row | Sequence | switch fluorescence ratio
47 | TGGACTTAGC | 0.988
48 | ACGTCTGATA | 1.01
49 | AGACAACACA | 1.15
50 | TTTCTCAGGC | 0.945
51 | GTACGAATTT | 1.03
52 | CGCCAGCGAG | 1.04
53 | AGGCCCTTC | 0.999
54 | AGGCGACTCT | 0.941
55 | CAGTGGACAA | 1.04
56 | TAAAAAGGT | 0.95
57 | CGGGGCTTCA | 1
58 | GGAGGACACG | 1.07
59 | GGGGCTATAG | 1.02
60 | CCCGGTAATG | 1.22
61 | TTTCACATGC | 1.02
62 | GTTTTATTA | 1.02
63 | CCGCTCGGAG | 1.33
64 | TCACTGCGGA | 1.03
65 | CAGTTAAGGC | 0.886
66 | GTAGTTTTTA | 0.988
67 | AGATGTTCCA | 0.998
68 | CATTGAGCTA | 1.08
69 | GGGAGATTTA | 1.01

Row | Sequence | switch fluorescence ratio
70 | CCTGTGTATA | 1.09
71 | GGGGTACCCG | 1.04
72 | TCTTCCTTAA | 1.09
73 | TGGATGGGG | 0.983
74 | CGATTAGGA | 0.974
75 | TGGTAACTGG | 1.04
76 | ACACGAGCCC | 0.985
77 | CCCAGTGCCA | 1.41
78 | ACGCAGATGA | 1.11
79 | CGGTTCAAGG | 0.98
80 | ATATATATAG | 1.02
81 | CTTAGAAAAA | 0.998
82 | TCCATTGTAG | 0.965
83 | TTTCGATCAA | 1.01
84 | GCGGGTCAGG | 0.983
85 | ATTTTGTAAA | 0.998
86 | GTTCTATGTG | 0.989
87 | ACTTGGTAGG | 1.01
88 | TGCGCGCAGC | 0.989
89 | CCGTCCGAA | 0.978
90 | TATATCCAAT | 0.984
91 | CTGCACAATT | 1.15
92 | TTGATATAGG | 1.02

Row | Sequence | switch fluorescence ratio
93 | GCTTTGCTT | 1.01
94 | CAGGCCACTT | 0.994
95 | AGCCTGAGGC | 0.959
96 | TGTCGTAGCA | 1.01
97 | TGTATATCGA | 1.03
98 | AATATCTTGA | 1.07
99 | TGACTCATGA | 0.999
100 | GATGTGACCT | 1.23
101 | CGGGCGAAGC | 1.01
102 | ATAACTTAGT | 0.986
103 | TTGAACTAGA | 0.975
104 | CTCCTTAAGC | 1.45
105 | ACCGCATAAG | 2.39
106 | TTATAACCCC | 1.1
107 | TGCCACGCCA | 1.04
108 | AGTCAGCGCG | 0.986
109 | ACAGCTATCA | 1.09
110 | TGCCTGACAC | 1.05
111 | AGGCGCGCGA | 1.01
112 | GGGGACCTGA | 1.03
113 | TACGTCATG | 1.09
114 | ATTACTGACA | 1.12
115 | TTGTGGTCAT | 1.04

Row | Sequence | switch fluorescence ratio
116 | TTAAGTTCGC | 0.971
117 | GCAGGGGTAG | 0.965
118 | CTCGCACTGG | 2.15
119 | GCTTAAAGGA | 0.967
120 | AGTCCGTTCG | 0.985
121 | AGACGGTAGA | 1
122 | TTCGAATATA | 0.992
123 | GTAGCTGAAG | 1.04
124 | TTTCGAATTA | 1.04
125 | AATGATTTGT | 0.988
126 | CAGTGCCGCA | 1.1
127 | TAGAAATTGC | 0.994
128 | CAAATTCGCG | 1.02
129 | TGGTTCTAGC | 1.01
130 | TTACGGTAGA | 1.01
131 | CGTGTGGCCT | 1.02
132 | TTACGGACAA | 1.76
133 | GACCACGATA | 1.17
134 | TAACTCTCGA | 1.02
135 | ATGCGTGGAG | 0.976
136 | GATATCAGGC | 0.966
137 | CGTTATACGA | 1.07
138 | AAGAAGGTCG | 0.922

Row | Sequence | switch fluorescence ratio
139 | AGATGCCCAA | 0.991
140 | GCCATCACTG | 0.972
141 | CTATCATTCG | 0.963
142 | TGTACTTCAA | 1.01
143 | GGCTGGCTTT | 1.01
144 | CAACGACGAT | 1.1
145 | CCTGCAGGGC | 1.4
146 | TGAATACCAC | 1
147 | CCCAGGGCTA | 1.49
148 | TACTCGGCCT | 1.11
149 | ATACGAATAT | 0.973
150 | TTTCCTTTAT | 1.01
151 | GTGGACTGCT | 0.932
152 | GATTCAAGCT | 1.08
153 | TTCTGGGAGA | 0.988
154 | TATTATCG | 0.983
155 | TGTGTGGTTG | 1.04
156 | TTACCCTGCT | 0.996
157 | TAAATGTTGG | 0.958
